Reference: publication PMC5895051
Results are given in words; binding and its absence hold for the method and conditions named. Binding seen in cells or lysates may run through a third protein. Some results given as binding are weak or reduced against the parent protein; the word gives no strength. Each block holds one substance with its values, some of them ahead of it.

By UniProt entry, the sequences of proteins in these tests, tags left out.
UniProt O75800: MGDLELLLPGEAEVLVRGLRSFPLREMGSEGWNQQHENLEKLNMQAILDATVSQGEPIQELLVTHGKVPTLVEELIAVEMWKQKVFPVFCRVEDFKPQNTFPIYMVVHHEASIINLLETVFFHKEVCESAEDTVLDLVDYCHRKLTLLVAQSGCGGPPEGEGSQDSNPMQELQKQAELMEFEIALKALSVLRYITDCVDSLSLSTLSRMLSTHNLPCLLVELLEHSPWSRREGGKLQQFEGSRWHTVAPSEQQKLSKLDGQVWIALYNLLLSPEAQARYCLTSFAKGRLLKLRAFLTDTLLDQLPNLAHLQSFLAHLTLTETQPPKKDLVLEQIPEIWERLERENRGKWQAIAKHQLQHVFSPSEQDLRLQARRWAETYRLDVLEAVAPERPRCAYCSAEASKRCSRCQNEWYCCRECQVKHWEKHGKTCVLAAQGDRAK
UniProt P11142: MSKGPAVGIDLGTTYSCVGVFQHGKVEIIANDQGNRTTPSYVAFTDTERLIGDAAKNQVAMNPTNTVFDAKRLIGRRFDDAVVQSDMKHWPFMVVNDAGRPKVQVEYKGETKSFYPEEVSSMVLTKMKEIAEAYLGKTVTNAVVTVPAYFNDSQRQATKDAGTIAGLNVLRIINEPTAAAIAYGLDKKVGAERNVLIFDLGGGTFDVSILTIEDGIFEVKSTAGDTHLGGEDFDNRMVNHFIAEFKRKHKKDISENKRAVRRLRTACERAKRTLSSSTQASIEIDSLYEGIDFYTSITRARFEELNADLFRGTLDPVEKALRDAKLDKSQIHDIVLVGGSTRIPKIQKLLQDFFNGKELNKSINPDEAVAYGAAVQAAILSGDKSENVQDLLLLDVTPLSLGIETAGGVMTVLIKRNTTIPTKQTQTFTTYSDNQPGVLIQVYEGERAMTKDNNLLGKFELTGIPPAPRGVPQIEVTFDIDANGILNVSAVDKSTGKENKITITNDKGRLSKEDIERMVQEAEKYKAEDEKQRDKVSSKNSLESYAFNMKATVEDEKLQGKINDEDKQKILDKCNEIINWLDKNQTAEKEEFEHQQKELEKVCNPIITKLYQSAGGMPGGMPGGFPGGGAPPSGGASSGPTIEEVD
UniProt Q9WTM5: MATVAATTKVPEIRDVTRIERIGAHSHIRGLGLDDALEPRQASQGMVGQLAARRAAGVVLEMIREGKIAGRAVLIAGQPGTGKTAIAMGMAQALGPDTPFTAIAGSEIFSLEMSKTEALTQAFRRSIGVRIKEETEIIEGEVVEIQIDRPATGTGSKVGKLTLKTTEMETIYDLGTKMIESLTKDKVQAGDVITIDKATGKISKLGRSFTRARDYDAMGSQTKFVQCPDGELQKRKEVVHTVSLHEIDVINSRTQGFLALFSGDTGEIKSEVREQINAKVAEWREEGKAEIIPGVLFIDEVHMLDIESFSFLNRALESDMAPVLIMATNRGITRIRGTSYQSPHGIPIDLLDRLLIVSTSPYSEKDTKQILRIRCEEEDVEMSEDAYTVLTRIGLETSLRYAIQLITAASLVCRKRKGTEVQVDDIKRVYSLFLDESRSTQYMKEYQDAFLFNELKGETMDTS

Legend:
[1] = molecular target: FLAG-tagged ZMYND10 (zinc finger MYND-type-containing 10) (UniProt O75800); experiment: co-IP; FLAG-ZMYND10 alone transfected into HEK 293T cells; immunoprecipitated with anti-FLAG antibodies, blotted with anti-HSC70 antibodies (endogenous partner)
[2] = molecular target: FLAG-tagged ZMYND10 (zinc finger MYND-type-containing 10) (UniProt O75800); experiment: co-IP; constructs cotransfected into HEK 293T cells; immunoprecipitated with anti-FLAG M2 or anti-c-Myc affinity gels, immunoblot
[3] = molecular target: GST-ZMYND10, full-length protein (UniProt O75800); experiment: pull-down; purified GST-ZMYND10 (full length) or GST-MYND as bait; lysates from mTECs; immunoblot; only the target purified

binding [1]: binds
Substance: HSC70 (heat shock cognate protein 70), endogenous (from UniProt P11142 1-646)

binding [2]: binds
Substance: Myc-HSC70 (heat shock cognate protein 70) (from UniProt P11142 1-646)

binding [3]: binds
Substance: REPTIN, endogenous in mouse tracheal epithelial cells (from UniProt Q9WTM5 1-463)
